Experimental data published in the supplement of paper PMC3334620.
Over roughly 33,000 sequences, “E-score (-0.5 to 0.5)” has its median near -0.035; the highest 2% begin near 0.35. Some of the results follow.

target: T1, Pdr3 (UniProt P33200); test: PBM E-score (8-mer binding enrichment) (E-score (-0.5 to 0.5)); higher = stronger / more preferred TF binding; most listed sequences are background and not binding sites; conditions: protein concentration: 200 nM; construct: GST-full length
T1 sequence: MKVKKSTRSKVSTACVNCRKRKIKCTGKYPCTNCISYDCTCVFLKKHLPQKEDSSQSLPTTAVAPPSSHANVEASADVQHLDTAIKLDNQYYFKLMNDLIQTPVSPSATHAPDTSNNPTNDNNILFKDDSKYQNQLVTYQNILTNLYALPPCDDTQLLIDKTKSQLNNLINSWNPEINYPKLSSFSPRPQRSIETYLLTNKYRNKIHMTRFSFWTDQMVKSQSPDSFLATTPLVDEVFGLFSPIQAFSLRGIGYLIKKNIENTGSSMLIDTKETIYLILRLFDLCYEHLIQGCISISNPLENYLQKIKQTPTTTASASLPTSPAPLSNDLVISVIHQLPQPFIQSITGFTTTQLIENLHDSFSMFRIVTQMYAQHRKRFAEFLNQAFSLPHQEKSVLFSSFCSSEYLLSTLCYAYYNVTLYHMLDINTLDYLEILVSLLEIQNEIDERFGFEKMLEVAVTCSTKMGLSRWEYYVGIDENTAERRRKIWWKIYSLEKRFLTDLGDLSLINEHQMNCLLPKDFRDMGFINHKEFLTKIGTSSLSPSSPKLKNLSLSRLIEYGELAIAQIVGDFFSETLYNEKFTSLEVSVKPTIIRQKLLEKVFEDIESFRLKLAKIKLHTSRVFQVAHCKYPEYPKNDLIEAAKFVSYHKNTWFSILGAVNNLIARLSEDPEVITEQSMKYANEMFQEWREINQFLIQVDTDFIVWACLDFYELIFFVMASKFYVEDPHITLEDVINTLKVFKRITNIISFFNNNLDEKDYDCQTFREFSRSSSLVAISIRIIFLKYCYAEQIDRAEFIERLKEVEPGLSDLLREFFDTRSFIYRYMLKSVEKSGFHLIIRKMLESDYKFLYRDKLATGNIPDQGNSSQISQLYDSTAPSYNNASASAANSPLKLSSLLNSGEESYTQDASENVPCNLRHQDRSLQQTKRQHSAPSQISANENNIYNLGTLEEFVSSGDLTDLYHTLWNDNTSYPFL
How it was run: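 Each ungapped eight-base word and its reverse complement, pooled, received an E-score from the Universal PBM Analysis Suite. Underlying scans, normalised with masliner, recorded fluorescent anti-GST bound to GST-tagged yeast transcription factors. These were applied at about 100-200 nM to universal all-10-mer Agilent arrays double-stranded by primer extension.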

For AGAATACA, which “PBM E-score” value is on record?
The value was 0.13.

How did the “PBM E-score” value turn out when AGGGCAGG was run?
The value was -0.0955.

How did the “PBM E-score” value turn out when CGGGAGGA was run?
Its value is 0.255.

How did the “PBM E-score” value turn out when CAGGACAG was run?
The value was -0.0411.

With ATCAAATC as the sequence, how does the “PBM E-score” value read?
Its value is 0.0855.

AATTGAGA was tested. Which “PBM E-score” value did it give?
Its value is 0.109.

Which “PBM E-score” value does the source give for CCGATTAC here?
Its value is 0.176.

For GAGGCCAA, which “PBM E-score” value is on record?
The value was 0.0103.

With GGGCACCC as the sequence, how does the “PBM E-score” value read?
Its value is -0.0509.

For ACCAGTAT, which “PBM E-score” value is on record?
Its value is 0.0888.

Which “PBM E-score” value does the source give for TACCACTA here?
Its value is -0.0712.

With AAGAAACA as the sequence, how does the “PBM E-score” value read?
Its value is 0.0916.

Which “PBM E-score” value does the source give for CATAAGTA here?
Its value is -0.261.

With CGCCTGAG as the sequence, how does the “PBM E-score” value read?
The value was 0.0467.

With GAAATAAA as the sequence, how does the “PBM E-score” value read?
Its value is 0.0582.

For ACACACCT, which “PBM E-score” value is on record?
Its value is 0.104.

Which “PBM E-score” value does the source give for CGACCGCG here?
The value was 0.331.

With AATGGTAA as the sequence, how does the “PBM E-score” value read?
Its value is 0.0417.

CAAACTGA was tested. Which “PBM E-score” value did it give?
The value was 0.0275.

For CCACCCCA, which “PBM E-score” value is on record?
The value was -0.0682.

How did the “PBM E-score” value turn out when CGGACGCA was run?
The value was 0.21.

Which “PBM E-score” value does the source give for ATATTACG here?
The value was 0.116.

For CGCCTCGC, which “PBM E-score” value is on record?
The value was 0.101.

With CGCCCGTA as the sequence, how does the “PBM E-score” value read?
The value was -0.0283.

With ACCACGAG as the sequence, how does the “PBM E-score” value read?
The value was -0.0546.

For AGCTTGTC, which “PBM E-score” value is on record?
Its value is 0.00669.

How did the “PBM E-score” value turn out when AATGATCG was run?
The value was 0.00228.

ATTTATAG was tested. Which “PBM E-score” value did it give?
The value was -0.162.

Which “PBM E-score” value does the source give for ATGGGACA here?
Its value is 0.0455.

With GCACGGCC as the sequence, how does the “PBM E-score” value read?
The value was 0.21.

For ACTATGAT, which “PBM E-score” value is on record?
The value was -0.0762.

With ACATTAGC as the sequence, how does the “PBM E-score” value read?
Its value is -0.0887.

How did the “PBM E-score” value turn out when CATTAGAA was run?
Its value is -0.112.

ACTTACTC was tested. Which “PBM E-score” value did it give?
The value was -0.131.

Which “PBM E-score” value does the source give for ACTCCCAA here?
Its value is -0.169.

Which “PBM E-score” value does the source give for CTCGAAAG here?
Its value is -0.094.

Which “PBM E-score” value does the source give for CGTTCTAG here?
Its value is -0.0323.

Which “PBM E-score” value does the source give for CTAGACAG here?
The value was -0.124.

How did the “PBM E-score” value turn out when ACTAGTAC was run?
Its value is -0.105.

With CAATGACA as the sequence, how does the “PBM E-score” value read?
The value was -0.182.

Which “PBM E-score” value does the source give for CTACAGCA here?
Its value is -0.0661.

For GAGACCAA, which “PBM E-score” value is on record?
Its value is 0.151.

Which “PBM E-score” value does the source give for AATTAAGA here?
The value was -0.106.

GATCTTCA was tested. Which “PBM E-score” value did it give?
The value was 0.0569.

For ACTAAAAA, which “PBM E-score” value is on record?
Its value is 0.119.

For GCCTTTTA, which “PBM E-score” value is on record?
The value was -0.241.

With ACGATGAG as the sequence, how does the “PBM E-score” value read?
Its value is 0.0497.

How did the “PBM E-score” value turn out when GTGTGCAA was run?
The value was -0.072.

GAGACATA was tested. Which “PBM E-score” value did it give?
The value was -0.0427.

For CGATCACA, which “PBM E-score” value is on record?
Its value is 0.0753.

How did the “PBM E-score” value turn out when GCTGTTGA was run?
The value was 0.0325.

Which “PBM E-score” value does the source give for CCCTAATA here?
The value was -0.113.

For GCATTCAA, which “PBM E-score” value is on record?
Its value is -0.0547.

How did the “PBM E-score” value turn out when CCTGTCGA was run?
The value was -0.195.

For CTGGTAAC, which “PBM E-score” value is on record?
The value was 0.0131.

How did the “PBM E-score” value turn out when ACCATCCC was run?
The value was 0.191.

Which “PBM E-score” value does the source give for CTTCCCTA here?
Its value is -0.168.

For ACTCCAAA, which “PBM E-score” value is on record?
The value was -0.123.

How did the “PBM E-score” value turn out when AGTTGCCA was run?
Its value is -0.0379.

TGCGAACA was tested. Which “PBM E-score” value did it give?
Its value is -0.0762.

For GGGGAAGA, which “PBM E-score” value is on record?
The value was -0.174.

ATCGCTAG was tested. Which “PBM E-score” value did it give?
Its value is -0.0365.

Which “PBM E-score” value does the source give for AAAATGAG here?
The value was -0.188.

For CACAGGGG, which “PBM E-score” value is on record?
Its value is -0.257.

How did the “PBM E-score” value turn out when CACTGTGC was run?
Its value is 0.0326.

How did the “PBM E-score” value turn out when AATGACGG was run?
The value was 0.174.

How did the “PBM E-score” value turn out when CAAGTACC was run?
The value was -0.0464.

For ACGGAGTG, which “PBM E-score” value is on record?
The value was 0.323.

For AGCGCCAT, which “PBM E-score” value is on record?
Its value is -0.138.

For AGATCCCT, which “PBM E-score” value is on record?
The value was -0.142.

With AACTCTAG as the sequence, how does the “PBM E-score” value read?
The value was -0.339.

How did the “PBM E-score” value turn out when AGGTCGGC was run?
The value was -0.00042.

With CTCCTCGC as the sequence, how does the “PBM E-score” value read?
Its value is -0.16.

How did the “PBM E-score” value turn out when AGCCGCTC was run?
Its value is 0.0409.

For ATATGCGG, which “PBM E-score” value is on record?
The value was 0.184.

With ACCACACC as the sequence, how does the “PBM E-score” value read?
Its value is 0.00706.

For CTGCTAAC, which “PBM E-score” value is on record?
Its value is -0.217.

For AAGGAGGT, which “PBM E-score” value is on record?
Its value is -0.145.

With GGGACCCC as the sequence, how does the “PBM E-score” value read?
The value was 0.122.

AGCCGCTG was tested. Which “PBM E-score” value did it give?
Its value is 0.056.

With ACCCGTGA as the sequence, how does the “PBM E-score” value read?
Its value is 0.0325.

How did the “PBM E-score” value turn out when CACCTTCA was run?
The value was -0.0629.

Which “PBM E-score” value does the source give for AGCAGGAC here?
The value was -0.00491.

With GTGGATTA as the sequence, how does the “PBM E-score” value read?
The value was -0.0959.

Which “PBM E-score” value does the source give for CACTCAGA here?
The value was -0.0449.

Which “PBM E-score” value does the source give for AAACTGAG here?
Its value is -0.0857.

AACGATCA was tested. Which “PBM E-score” value did it give?
The value was -0.126.

For CAGTTAGC, which “PBM E-score” value is on record?
Its value is -0.229.

GTGGCCGA was tested. Which “PBM E-score” value did it give?
The value was 0.107.

How did the “PBM E-score” value turn out when AAACTCGT was run?
The value was 0.0275.

With CCCTTCAA as the sequence, how does the “PBM E-score” value read?
The value was -0.193.

Which “PBM E-score” value does the source give for ACTCGAGC here?
The value was -0.00557.

With TAGGAGAA as the sequence, how does the “PBM E-score” value read?
The value was -0.201.

Which “PBM E-score” value does the source give for AAATCGGT here?
Its value is -0.157.
